Assay results reported in PMC5693993.
These are yes or no findings as the source states them, for the method shown. In cells and extracts the contact can be indirect. Some binding calls cover weakened binding; strength is not graded here.

T1: TNF receptor-associated factor 6 (TRAF6) (mouse (endogenous in BM-pDCs)), P70196
T1 chain: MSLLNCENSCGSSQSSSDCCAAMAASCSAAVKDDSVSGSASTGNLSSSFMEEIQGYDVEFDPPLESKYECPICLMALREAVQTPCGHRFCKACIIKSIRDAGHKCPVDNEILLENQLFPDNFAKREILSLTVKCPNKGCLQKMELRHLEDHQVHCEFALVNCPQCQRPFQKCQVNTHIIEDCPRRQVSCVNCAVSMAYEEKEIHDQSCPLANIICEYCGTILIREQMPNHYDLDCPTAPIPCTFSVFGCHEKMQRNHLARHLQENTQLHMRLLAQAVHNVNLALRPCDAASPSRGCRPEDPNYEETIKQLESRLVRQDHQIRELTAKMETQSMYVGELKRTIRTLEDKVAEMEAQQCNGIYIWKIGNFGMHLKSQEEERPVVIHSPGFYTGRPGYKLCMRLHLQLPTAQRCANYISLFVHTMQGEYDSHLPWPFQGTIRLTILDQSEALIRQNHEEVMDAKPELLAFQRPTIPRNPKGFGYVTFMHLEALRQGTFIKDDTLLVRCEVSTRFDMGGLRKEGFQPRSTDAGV

T2: TNF receptor-associated factor 6 (TRAF6) (mouse (endogenous in BM-pDCs)) (UniProt P70196)
T2 sequence: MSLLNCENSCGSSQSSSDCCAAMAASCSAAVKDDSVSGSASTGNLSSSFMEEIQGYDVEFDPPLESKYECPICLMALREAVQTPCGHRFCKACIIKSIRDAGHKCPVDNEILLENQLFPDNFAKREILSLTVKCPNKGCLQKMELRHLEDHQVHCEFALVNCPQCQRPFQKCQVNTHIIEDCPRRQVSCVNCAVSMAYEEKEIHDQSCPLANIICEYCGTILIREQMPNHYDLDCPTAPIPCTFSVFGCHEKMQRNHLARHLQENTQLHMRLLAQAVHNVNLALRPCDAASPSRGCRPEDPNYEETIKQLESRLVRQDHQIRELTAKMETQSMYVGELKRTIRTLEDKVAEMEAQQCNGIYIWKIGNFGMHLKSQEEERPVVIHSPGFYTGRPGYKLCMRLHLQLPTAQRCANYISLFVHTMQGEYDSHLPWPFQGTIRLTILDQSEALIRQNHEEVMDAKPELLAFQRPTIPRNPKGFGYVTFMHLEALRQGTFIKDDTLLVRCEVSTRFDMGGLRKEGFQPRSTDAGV

T3: toll-like receptor 7 (TLR7) (mouse (endogenous in spleen cells, cDCs, BM-pDCs)) (UniProt P58681)
T3 sequence: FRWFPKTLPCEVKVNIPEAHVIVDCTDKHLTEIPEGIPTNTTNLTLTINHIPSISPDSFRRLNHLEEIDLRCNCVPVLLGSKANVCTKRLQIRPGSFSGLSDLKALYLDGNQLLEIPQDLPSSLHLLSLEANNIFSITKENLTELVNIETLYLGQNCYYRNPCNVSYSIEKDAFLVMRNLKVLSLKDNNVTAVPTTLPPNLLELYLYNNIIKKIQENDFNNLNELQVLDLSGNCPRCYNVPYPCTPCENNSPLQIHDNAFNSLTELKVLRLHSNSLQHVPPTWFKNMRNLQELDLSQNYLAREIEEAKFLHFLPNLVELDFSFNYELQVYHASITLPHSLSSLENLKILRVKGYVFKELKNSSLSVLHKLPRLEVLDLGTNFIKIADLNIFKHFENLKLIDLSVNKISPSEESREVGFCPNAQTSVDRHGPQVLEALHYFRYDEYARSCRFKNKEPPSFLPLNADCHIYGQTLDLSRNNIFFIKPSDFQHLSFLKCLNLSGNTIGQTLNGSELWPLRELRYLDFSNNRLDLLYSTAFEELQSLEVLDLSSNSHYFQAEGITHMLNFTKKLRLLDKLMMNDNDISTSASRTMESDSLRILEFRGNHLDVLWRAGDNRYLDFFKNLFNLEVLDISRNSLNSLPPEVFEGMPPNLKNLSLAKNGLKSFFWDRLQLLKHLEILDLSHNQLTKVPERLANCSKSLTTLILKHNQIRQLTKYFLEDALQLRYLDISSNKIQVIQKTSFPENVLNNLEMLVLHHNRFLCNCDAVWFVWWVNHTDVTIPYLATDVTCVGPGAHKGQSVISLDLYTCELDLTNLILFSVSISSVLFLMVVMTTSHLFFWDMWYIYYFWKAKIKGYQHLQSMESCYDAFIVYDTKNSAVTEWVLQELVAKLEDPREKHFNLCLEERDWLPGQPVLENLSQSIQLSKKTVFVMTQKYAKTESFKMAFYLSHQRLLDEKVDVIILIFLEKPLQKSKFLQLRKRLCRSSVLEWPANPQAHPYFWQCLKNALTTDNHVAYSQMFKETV

T4: TLR9 (mouse (endogenous in BM-pDCs)) (UniProt Q9EQU3)
T4 sequence: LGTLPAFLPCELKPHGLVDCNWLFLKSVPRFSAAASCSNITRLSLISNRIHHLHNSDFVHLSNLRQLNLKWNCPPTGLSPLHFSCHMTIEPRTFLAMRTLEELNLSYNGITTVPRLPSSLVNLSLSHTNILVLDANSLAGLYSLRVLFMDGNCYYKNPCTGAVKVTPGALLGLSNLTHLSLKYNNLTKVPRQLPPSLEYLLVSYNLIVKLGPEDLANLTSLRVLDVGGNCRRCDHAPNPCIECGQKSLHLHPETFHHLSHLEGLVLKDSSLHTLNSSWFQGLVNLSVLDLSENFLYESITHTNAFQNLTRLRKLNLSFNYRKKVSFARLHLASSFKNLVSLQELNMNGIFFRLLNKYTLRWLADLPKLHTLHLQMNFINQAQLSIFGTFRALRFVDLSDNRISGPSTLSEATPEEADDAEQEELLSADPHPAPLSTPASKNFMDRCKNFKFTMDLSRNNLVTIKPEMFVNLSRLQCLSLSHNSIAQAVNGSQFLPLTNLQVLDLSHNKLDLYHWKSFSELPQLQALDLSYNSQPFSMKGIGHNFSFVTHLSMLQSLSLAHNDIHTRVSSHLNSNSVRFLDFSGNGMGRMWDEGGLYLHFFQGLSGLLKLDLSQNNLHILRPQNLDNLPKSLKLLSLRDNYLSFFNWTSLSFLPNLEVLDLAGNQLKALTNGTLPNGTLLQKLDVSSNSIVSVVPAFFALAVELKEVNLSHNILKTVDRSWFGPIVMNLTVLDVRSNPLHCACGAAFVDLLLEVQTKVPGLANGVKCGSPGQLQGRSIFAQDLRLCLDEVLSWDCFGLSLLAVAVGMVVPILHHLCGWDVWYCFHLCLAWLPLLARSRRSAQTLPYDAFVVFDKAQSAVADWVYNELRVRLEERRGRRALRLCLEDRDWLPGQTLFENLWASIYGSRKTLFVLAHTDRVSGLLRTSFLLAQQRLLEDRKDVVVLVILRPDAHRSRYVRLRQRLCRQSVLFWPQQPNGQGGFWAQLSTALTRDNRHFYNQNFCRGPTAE

T5: Unc93B1 overexpressed in a macrophage cell line (UniProt Q8VCW4)
T5 sequence: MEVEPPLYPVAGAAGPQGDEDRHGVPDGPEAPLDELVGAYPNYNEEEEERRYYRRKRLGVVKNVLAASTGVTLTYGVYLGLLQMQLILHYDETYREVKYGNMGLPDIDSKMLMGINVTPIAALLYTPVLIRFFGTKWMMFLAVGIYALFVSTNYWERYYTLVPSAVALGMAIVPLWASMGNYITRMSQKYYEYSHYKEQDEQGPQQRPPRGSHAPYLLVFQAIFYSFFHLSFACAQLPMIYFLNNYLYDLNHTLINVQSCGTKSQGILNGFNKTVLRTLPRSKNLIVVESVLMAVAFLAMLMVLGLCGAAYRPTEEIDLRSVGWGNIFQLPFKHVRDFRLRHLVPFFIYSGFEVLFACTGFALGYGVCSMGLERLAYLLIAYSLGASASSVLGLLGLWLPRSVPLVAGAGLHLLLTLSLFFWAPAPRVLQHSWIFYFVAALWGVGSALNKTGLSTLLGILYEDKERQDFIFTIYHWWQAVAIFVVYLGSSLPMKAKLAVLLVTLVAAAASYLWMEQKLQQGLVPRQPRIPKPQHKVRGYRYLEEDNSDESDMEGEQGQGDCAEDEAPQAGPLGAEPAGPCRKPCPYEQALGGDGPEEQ


How the values were obtained:
[1] = molecular target: T1, TNF receptor-associated factor 6 …; assay: co-IP; WT BM-pDCs stimulated with 25 μg/mL polyU for the indicated times, lysed, immunoprecipitation with Ab against TRAF6 or goat IgG control; immunoblot; conditions: remark: other sources report otherwise
[2] = molecular target: T2, TNF receptor-associated factor 6 (TRAF6) (mouse (endogenous in BM-pDCs)); assay: co-IP; Arl8b Gt/Gt BM-pDCs stimulated with 25 μg/mL polyU for the indicated times, lysed, immunoprecipitation with Ab against TRAF6 or goat IgG control; immunoblot
[3] = molecular target: T3, toll-like receptor 7 (TLR7) (mouse (endogenous in spleen cells, cDCs, BM-pDCs)); assay: co-IP; endogenous TLR7 or TLR9 immunoprecipitated from total spleen cells, cDCs or BM-pDCs; immunoblot of TLR7, TLR9, Unc93b1 and Arl8a/b; isotype-matched control Ab
[4] = molecular target: T4, TLR9 (mouse (endogenous in BM-pDCs)); assay: as above
[5] = molecular target: T5, Unc93B1 overexpressed in a macrophage cell line; assay: co-IP; immunoprecipitation of Unc93B1 from a macrophage cell line transduced to overexpress it; immunoblot

| binding [1] | binding [3] | binding [4] | binding [5] | Binder | binding [2] |
| --- | --- | --- | --- | --- | --- |
| binds |  |  |  | TRAF3, Q60803 1-567 (protein) MESSKKMDAAGTLQPNPPLKLQPDRGAGSVLVPEQGGYKEKFVKTVEDKYKCEKCRLVLCNPKQTECGHRFCESCMAALLSSSSPKCTACQESIIKDKVFKDNCCKREILALQVYCRNEGRGCAEQLTLGHLLVHLKNECQFEELPCLRADCKEKVLRKDLRDHVEKACKYREATCSHCKSQVPMIKLQKHEDTDCPCVVVSCPHKCSVQTLLRSELSAHLSECVNAPSTCSFKRYGCVFQGTNQQIKAHEASSAVQHVNLLKEWSNSLEKKVSLLQNESVEKNKSIQSLHNQICSFEIEIERQKEMLRNNESKILHLQRVIDSQAEKLKELDKEIRPFRQNWEEADSMKSSVESLQNRVTELESVDKSAGQAARNTGLLESQLSRHDQMLSVHDIRLADMDLRFQVLETASYNGVLIWKIRDYKRRKQEAVMGKTLSLYSQPFYTGYFGYKMCARVYLNGDGMGKGTHLSLFFVIMRGEYDALLPWPFKQKVTLMLMDQGSSRRHLGDAFKPDPNSSSFKKPTGEMNIASGCPVFVAQTVLENGTYIKDDTIFIKVIVDTSDLPDP |  |
|  |  |  |  | TRAF3 (protein, UniProt Q60803 1-567) MESSKKMDAAGTLQPNPPLKLQPDRGAGSVLVPEQGGYKEKFVKTVEDKYKCEKCRLVLCNPKQTECGHRFCESCMAALLSSSSPKCTACQESIIKDKVFKDNCCKREILALQVYCRNEGRGCAEQLTLGHLLVHLKNECQFEELPCLRADCKEKVLRKDLRDHVEKACKYREATCSHCKSQVPMIKLQKHEDTDCPCVVVSCPHKCSVQTLLRSELSAHLSECVNAPSTCSFKRYGCVFQGTNQQIKAHEASSAVQHVNLLKEWSNSLEKKVSLLQNESVEKNKSIQSLHNQICSFEIEIERQKEMLRNNESKILHLQRVIDSQAEKLKELDKEIRPFRQNWEEADSMKSSVESLQNRVTELESVDKSAGQAARNTGLLESQLSRHDQMLSVHDIRLADMDLRFQVLETASYNGVLIWKIRDYKRRKQEAVMGKTLSLYSQPFYTGYFGYKMCARVYLNGDGMGKGTHLSLFFVIMRGEYDALLPWPFKQKVTLMLMDQGSSRRHLGDAFKPDPNSSSFKKPTGEMNIASGCPVFVAQTVLENGTYIKDDTIFIKVIVDTSDLPDP | no binding (condition: in Arl8b Gt/Gt pDCs) |
|  | binds |  |  | Unc93B1 (endogenous) (protein, UniProt Q8VCW4 1-598) MEVEPPLYPVAGAAGPQGDEDRHGVPDGPEAPLDELVGAYPNYNEEEEERRYYRRKRLGVVKNVLAASTGVTLTYGVYLGLLQMQLILHYDETYREVKYGNMGLPDIDSKMLMGINVTPIAALLYTPVLIRFFGTKWMMFLAVGIYALFVSTNYWERYYTLVPSAVALGMAIVPLWASMGNYITRMSQKYYEYSHYKEQDEQGPQQRPPRGSHAPYLLVFQAIFYSFFHLSFACAQLPMIYFLNNYLYDLNHTLINVQSCGTKSQGILNGFNKTVLRTLPRSKNLIVVESVLMAVAFLAMLMVLGLCGAAYRPTEEIDLRSVGWGNIFQLPFKHVRDFRLRHLVPFFIYSGFEVLFACTGFALGYGVCSMGLERLAYLLIAYSLGASASSVLGLLGLWLPRSVPLVAGAGLHLLLTLSLFFWAPAPRVLQHSWIFYFVAALWGVGSALNKTGLSTLLGILYEDKERQDFIFTIYHWWQAVAIFVVYLGSSLPMKAKLAVLLVTLVAAAASYLWMEQKLQQGLVPRQPRIPKPQHKVRGYRYLEEDNSDESDMEGEQGQGDCAEDEAPQAGPLGAEPAGPCRKPCPYEQALGGDGPEEQ |  |
|  | binds | binds weakly | binds | Arl8b (protein, UniProt Q9CQW2 1-186) MLALISRLLDWFRSLFWKEEMELTLVGLQYSGKTTFVNVIASGQFSEDMIPTVGFNMRKVTKGNVTIKIWDIGGQPRFRSMWERYCRGVNAIVYMIDAADREKIEASRNELHNLLDKPQLQGIPVLVLGNKRDLPNALDEKQLIEKMNLSAIQDREICCYSISCKEKDNIDITLQWLIQHSKSRRS |  |
|  | binds | binds weakly | binds | Arl8a (protein, UniProt Q8VEH3 1-186) MIALFNKLLDWFKALFWKEEMELTLVGLQYSGKTTFVNVIASGQFNEDMIPTVGFNMRKITKGNVTIKLWDIGGQPRFRSMWERYCRGVSAIVYMVDAADQEKIEASKNELHNLLDKPQLQGIPVLVLGNKRDLAGALDEKELIEKMNLSAIQDREICCYSISCKEKDNIDITLQWLIQHSKSRRS |  |
